# Paper PMC12820563, “FoxP3 forms a head-to-head dimer in vivo and stabilizes its multimerization on adjacent microsatellites”
# Some of the results follow.
# Molecular target: T1, MBP-FoxP1dN (Mus musculus, UniProt P58462 326-579)
# T1 sequence: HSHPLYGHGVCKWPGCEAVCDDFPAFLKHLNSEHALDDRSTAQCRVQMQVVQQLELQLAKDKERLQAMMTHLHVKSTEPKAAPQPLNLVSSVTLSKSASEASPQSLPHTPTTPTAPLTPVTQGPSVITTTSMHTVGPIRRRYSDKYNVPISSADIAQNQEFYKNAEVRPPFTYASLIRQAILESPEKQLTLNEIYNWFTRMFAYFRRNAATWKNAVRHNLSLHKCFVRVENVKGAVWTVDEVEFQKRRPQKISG
# Experiment: PD-seq (MBP pull-down with sequencing); 20 mM Tris-HCl pH 7.5, 100 mM NaCl, 1.5 mM MgCl2, 0.4 uM protein, 0.1 uM dsDNA library, 30 min, room temperature, amylose pull-down; high values mean tight binding
# Settings: protein: recombinant; tags: His6-MBP; chain copies: 2; dsDNA, one strand shown
# Procedure, shortened: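 Binding is given as reads-per-million enrichment, pull-down over input, with replicates pooled. The bait was an N-terminus-lacking mouse FoxP3 or FoxP1 fragment with a His6-MBP tag, expressed in E. coli and used at 0.4 µM with 0.1 µM Klenow-filled degenerate double-stranded DNA library for 30 min at room temperature in Tris pH 7.5 buffer with NaCl and MgCl2. Amylose resin pull-down with three washes was followed by proteinase K release, PCR barcoding and Illumina sequencing.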
row,Sequence,binding signal
1,GATGATTGTTCTCCCAGCTGATGAATTCGTGGCCTCGAGTAAACAAATTTTCCTAATCTTTCTGTTCAAGCGCCATCTAC,0.842 RPM ratio (pull-down/input)
2,GATGATTGTTCTCCCAGCTGATGAATTCTCCATATCGAGTAAACAAATTTTCCTAATCTTTCTGTTCAAGCGCCATCTAC,0.912 RPM ratio (pull-down/input)
3,GATGATTGTTCTCCCAGCTGATGAATTCGTCCAATCGAGTAAACAAATTTTCCTAATCTTTCTGTTCAAGCGCCATCTAC,1.02 RPM ratio (pull-down/input)
4,GATGATTGTTCTCCCAGCTGATGAATTCCGCCTCTCGAGTAAACAAATTTTCCTAATCTTTCTGTTCAAGCGCCATCTAC,0.915 RPM ratio (pull-down/input)
5,GATGATTGTTCTCCCAGCTGATGAATTATTCGGTTCGAGTAAACAAATTTTCCTAATCTTTCTGTTCAAGCGCCATCTAC,0.917 RPM ratio (pull-down/input)
6,GATGATTGTTCTCCCAGCTGATGAATTTGCTGTATCGAGTAAACAAATTTTCCTAATCTTTCTGTTCAAGCGCCATCTAC,1.16 RPM ratio (pull-down/input)
7,GATGATTGTTCTCCCAGCTGATGAATTTACACTGTCGAGTAAACAAATTTTCCTAATCTTTCTGTTCAAGCGCCATCTAC,1.27 RPM ratio (pull-down/input)
8,GATGATTGTTCTCCCAGCTGATGAATTCATCGGTTCGAGTAAACAAATTTTCCTAATCTTTCTGTTCAAGCGCCATCTAC,0.902 RPM ratio (pull-down/input)
9,GATGATTGTTCTCCCAGCTGATGAATTTGGCGGCTCGAGTAAACAAATTTTCCTAATCTTTCTGTTCAAGCGCCATCTAC,0.754 RPM ratio (pull-down/input)
10,GATGATTGTTCTCCCAGCTGATGAATTGTGCAGATCGAGTAAACAAATTTTCCTAATCTTTCTGTTCAAGCGCCATCTAC,1.02 RPM ratio (pull-down/input)
11,GATGATTGTTCTCCCAGCTGATGAATTAGGACGTTCGAGTAAACAAATTTTCCTAATCTTTCTGTTCAAGCGCCATCTAC,0.889 RPM ratio (pull-down/input)
12,GATGATTGTTCTCCCAGCTGATGAATTTATCGAGTCGAGTAAACAAATTTTCCTAATCTTTCTGTTCAAGCGCCATCTAC,1.02 RPM ratio (pull-down/input)
13,GATGATTGTTCTCCCAGCTGATGAATTCTTACGATCGAGTAAACAAATTTTCCTAATCTTTCTGTTCAAGCGCCATCTAC,0.938 RPM ratio (pull-down/input)
14,GATGATTGTTCTCCCAGCTGATGAATTGCGTGGTTCGAGTAAACAAATTTTCCTAATCTTTCTGTTCAAGCGCCATCTAC,1.04 RPM ratio (pull-down/input)
15,GATGATTGTTCTCCCAGCTGATGAATTTTGCAGGTCGAGTAAACAAATTTTCCTAATCTTTCTGTTCAAGCGCCATCTAC,0.854 RPM ratio (pull-down/input)
16,GATGATTGTTCTCCCAGCTGATGAATTCACGGCCTCGAGTAAACAAATTTTCCTAATCTTTCTGTTCAAGCGCCATCTAC,0.832 RPM ratio (pull-down/input)

row,Sequence,binding signal
1,GATGATTGTTCTCCCAGCTGATGAATTTGTGTGTTCGAGTAAACAAATTTTCCTAATCTTTCTGTTCAAGCGCCATCTAC,1.59 RPM ratio (pull-down/input)
2,GATGATTGTTCTCCCAGCTGATGAATTGTAATGCTCGAGTAAACAAATTTTCCTAATCTTTCTGTTCAAGCGCCATCTAC,1.15 RPM ratio (pull-down/input)
3,GATGATTGTTCTCCCAGCTGATGAATTAAAGACCTCGAGTAAACAAATTTTCCTAATCTTTCTGTTCAAGCGCCATCTAC,0.801 RPM ratio (pull-down/input)
4,GATGATTGTTCTCCCAGCTGATGAATTCTGACACTCGAGTAAACAAATTTTCCTAATCTTTCTGTTCAAGCGCCATCTAC,0.866 RPM ratio (pull-down/input)
5,GATGATTGTTCTCCCAGCTGATGAATTAGAGACGTCGAGTAAACAAATTTTCCTAATCTTTCTGTTCAAGCGCCATCTAC,0.834 RPM ratio (pull-down/input)
6,GATGATTGTTCTCCCAGCTGATGAATTATCGTAGTCGAGTAAACAAATTTTCCTAATCTTTCTGTTCAAGCGCCATCTAC,1.03 RPM ratio (pull-down/input)
7,GATGATTGTTCTCCCAGCTGATGAATTCCCCCGTTCGAGTAAACAAATTTTCCTAATCTTTCTGTTCAAGCGCCATCTAC,0.907 RPM ratio (pull-down/input)
8,GATGATTGTTCTCCCAGCTGATGAATTTCAGACATCGAGTAAACAAATTTTCCTAATCTTTCTGTTCAAGCGCCATCTAC,0.945 RPM ratio (pull-down/input)
9,GATGATTGTTCTCCCAGCTGATGAATTCCCCCGCTCGAGTAAACAAATTTTCCTAATCTTTCTGTTCAAGCGCCATCTAC,0.785 RPM ratio (pull-down/input)
10,GATGATTGTTCTCCCAGCTGATGAATTAGACCCGTCGAGTAAACAAATTTTCCTAATCTTTCTGTTCAAGCGCCATCTAC,0.868 RPM ratio (pull-down/input)
11,GATGATTGTTCTCCCAGCTGATGAATTCCCATCCTCGAGTAAACAAATTTTCCTAATCTTTCTGTTCAAGCGCCATCTAC,0.815 RPM ratio (pull-down/input)
12,GATGATTGTTCTCCCAGCTGATGAATTGGCGAGTTCGAGTAAACAAATTTTCCTAATCTTTCTGTTCAAGCGCCATCTAC,0.839 RPM ratio (pull-down/input)
13,GATGATTGTTCTCCCAGCTGATGAATTTGTGAACTCGAGTAAACAAATTTTCCTAATCTTTCTGTTCAAGCGCCATCTAC,1.09 RPM ratio (pull-down/input)
14,GATGATTGTTCTCCCAGCTGATGAATTACTAGTCTCGAGTAAACAAATTTTCCTAATCTTTCTGTTCAAGCGCCATCTAC,0.971 RPM ratio (pull-down/input)
15,GATGATTGTTCTCCCAGCTGATGAATTGTTTTCCTCGAGTAAACAAATTTTCCTAATCTTTCTGTTCAAGCGCCATCTAC,2.36 RPM ratio (pull-down/input)
